# Out of some 260,000 compounds screened, about 960 (0.37%) were called active. Inconclusive results, whose numbers are uncertain, are shown with a selection of clear calls.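 The calls were made as follows: active = mean E-selectin-positive cell signal at least 10% of the positive control, reached in at least 60% of replicates, without over 20% cell loss; inconclusive = no rule given, readout overlaps actives, possibly toxicity-flagged; inactive = the rest, including those meeting only one limit.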
# Target: E-selectin (Homo sapiens) (UniProt P16581)
# UniProt P16581, sequence (P16581 whole entry, looked up): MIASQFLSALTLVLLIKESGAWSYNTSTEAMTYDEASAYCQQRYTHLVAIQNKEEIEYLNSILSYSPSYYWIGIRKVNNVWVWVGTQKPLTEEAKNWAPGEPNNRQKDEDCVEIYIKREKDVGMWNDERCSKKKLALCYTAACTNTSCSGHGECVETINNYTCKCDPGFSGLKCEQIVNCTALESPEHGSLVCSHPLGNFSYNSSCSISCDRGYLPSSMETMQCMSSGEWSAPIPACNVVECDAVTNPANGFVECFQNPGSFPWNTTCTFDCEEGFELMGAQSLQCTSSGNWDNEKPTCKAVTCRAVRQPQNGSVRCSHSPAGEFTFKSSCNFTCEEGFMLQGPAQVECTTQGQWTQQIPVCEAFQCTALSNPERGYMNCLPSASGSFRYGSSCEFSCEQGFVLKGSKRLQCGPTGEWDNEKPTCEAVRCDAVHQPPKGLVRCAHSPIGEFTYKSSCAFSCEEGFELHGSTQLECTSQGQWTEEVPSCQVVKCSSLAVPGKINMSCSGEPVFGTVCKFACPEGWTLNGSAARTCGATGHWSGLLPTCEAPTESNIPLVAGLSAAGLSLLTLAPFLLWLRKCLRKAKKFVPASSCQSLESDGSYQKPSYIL
# Assay: inducers of endothelial E-selectin expression – imaging, HUVEC, immunofluorescence imaging, single point, primary screen (AID 686992);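 also: signal is the percent of cells scored E-selectin positive by PE staining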
# Settings: at 7.58 µM, active compounds read high, normalized: neutral wells 0, TNF-alpha wells 100
# Outline: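 Material: HUVEC primary endothelial cells; Amount: 3,000 cells per well; Dosing: single concentration; Medium: EGM-2 growth medium on 0.1% gelatin-coated wells; Read-out basis: percent E-selectin-positive cells; Signal: immunofluorescence imaging; Control set: TNF-alpha, DMSO.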
row,SMILES,activation
1,COC(=O)c1c(N)sc(C(C)=O)c1C,inconclusive: 46.6%
2,COc1cccc(NC(=O)CC(c2ccc(OC(C)C)cc2)c2ccccc2OC)c1 (stereo not given),inconclusive: 27.5%
3,Cn1c(=O)[nH]c(=O)c2c1nc(CN1CCN(c3cccc(Cl)c3)CC1)n2CCCc1ccccc1,inconclusive: 69.1%
4,CC1Sc2ccc(C(=O)Nc3cc(S(C)(=O)=O)ccc3Cl)cc2NC1=O (stereo not given),inconclusive: 40.5%
5,COc1ccc2c(c1)cc(C(=O)N/N=C/c1c(O)c(C(=O)O)cc3ccccc13)n2C,inconclusive: 50.4%
6,C[C@H]1CN([C@@H](C)CO)C(=O)c2cc(NC(=O)c3ccncc3)ccc2O[C@H]1CN(C)S(=O)(=O)c1ccc(F)cc1,inconclusive: 0.192%
7,Clc1nnc(NC2CCCCC2)c(Cl)c1Cl,inactive: 0.0735%
8,O=C(Nc1ccccc1)c1ccc(=O)[nH]n1,inconclusive: 37.1%
9,O=S(=O)(NC(=NCCc1ccc(Cl)cc1)c1ccccc1Cl)c1cccs1,inconclusive: 68.2%
10,COc1ccc(N2C(=O)c3ccccc3C(C)(C)C2=O)cc1,active: 44.6%
11,O=C(C[C@H]1C=C[C@H](NS(=O)(=O)c2ccccc2)[C@H](CO)O1)N1CCC(Cc2ccccc2)CC1,inactive: -0.176%
12,C[C@H](CO)N1C[C@H](C)[C@H](CN(C)C(=O)c2ccncc2)Oc2cc(-c3cccc(C#N)c3)ccc2S1(=O)=O,inconclusive: 34.3%
13,CC(=O)Nc1ccc(S(=O)(=O)NNc2cccc(C)c2)cc1,active: 57.2%
14,Cc1cc2cc(CNC(=O)c3ccc(S(=O)(=O)N4CCCCC4)cc3)ccc2[nH]1,inconclusive: 29.2%
15,NC1=NC(=O)/C(=C/c2cccc(F)c2)S1,active: 54.2%
16,COc1ccc(-c2cc(=O)oc3cc(OCC(C)=O)ccc23)cc1,inconclusive: 32%
17,Cc1ccccc1CS(=O)(=O)CCC(=O)NCc1ccc(F)cc1Cl,inconclusive: 28.1%
18,CC(=O)N1N=C(c2ccc(Br)cc2)CC1c1cccc([N+](=O)[O-])c1 (stereo not given),inconclusive: 56.1%
19,COc1ccc(C#Cc2cnc3c(c2)C(=O)N([C@H](C)CO)C[C@H](C)[C@H](CN(C)S(=O)(=O)c2ccc(C#N)cc2)O3)cc1OC,inconclusive: 39.6%
20,COC1CCN(C(=O)c2ccc3oc(C(C)C)nc3c2)CC1,inconclusive: 40.7%
21,Cc1ccc(S(=O)(=O)Oc2ccc(/C=C(/NC(=O)c3ccccc3)C(=O)NCC(=O)O)cc2)cc1,inconclusive: 28%
22,O=C(CN(Cc1ccco1)S(=O)(=O)c1ccccc1)N/N=C/c1ccccc1C(=O)O,inconclusive: 41.1%
23,CN(C(=O)Cn1nnc2ccccc2c1=O)C1CCCCC1,inactive: 0.105%
24,CC(C)(C)OC(=O)N(CCc1ccccc1)Cc1ccc(OCc2cccc(NC(=O)c3ccccc3)c2)cc1,inconclusive: 27.9%
25,Cc1ccc(-n2nc3c(c2NC(=O)c2ccc4c(c2)OCO4)CS(=O)(=O)C3)c(C)c1,inconclusive: 84.8%

row,SMILES,activation
1,C[C@H](CO)N1C[C@H](C)[C@H](CN(C)C(=O)Nc2ccc(F)cc2)Oc2ccc(NC(=O)Cn3cnnn3)cc2CC1=O,inconclusive: 26.7%
2,CCn1cc(C(=O)NC(C)C2CC3CCC2C3)cn1 (stereo not given),inconclusive: 66.5%
3,CC(C)CC#Cc1cnc2c(c1)C(=O)N([C@H](C)CO)C[C@@H](C)[C@H](CN(C)C(=O)c1ccc3c(c1)OCO3)O2,active: 74.5%
4,O=C(Cc1ccccn1)N1CC2(C1)[C@H](c1ccccc1)[C@H](CO)N2C(=O)c1cccnc1,inactive: 0.096%
5,Cc1cccc2nc(-c3cccnc3)c(NCCC(C)C)n12,inactive: -0.241%
6,C[C@H](CO)N1C[C@H](C)[C@@H](CN(C)C(=O)Nc2ccc3c(c2)OCO3)Oc2ccc(NC(=O)C3CCCCC3)cc2CC1=O,inconclusive: 50.6%
7,CC(C)NC(=O)Nc1ccc2c(c1)C(=O)N([C@H](C)CO)C[C@@H](C)[C@H](CN(C)S(=O)(=O)c1ccccc1)O2,inconclusive: 27.3%
8,CC(C)NC(=O)N(C)C[C@@H]1Oc2ccc(NC(=O)Cc3cn(C)c4ccccc34)cc2C(=O)N([C@H](C)CO)C[C@H]1C,active: 48.6%
9,COc1ccc(S(=O)(=O)N(C)C[C@H]2Oc3ccc(NC(=O)CCC(F)(F)F)cc3C(=O)N([C@H](C)CO)C[C@@H]2C)cc1,inconclusive: -0.045%
10,CCS(=O)(=O)N1CC(=O)N2[C@H](CO)[C@H](c3ccc(C4=CCCC4)cc3)[C@@H]2C1,inactive: 0.068%
11,CC(OC(=O)c1nsc(Cl)c1Cl)C(=O)NCCc1ccccc1 (stereo not given),active: 28.7%
12,Cc1onc(-c2c(F)cccc2Cl)c1C(=O)Nc1nccs1,inconclusive: 59.7%
13,CC(C)C(=O)Nc1nnc(SCC(=O)Nc2ccc3c(c2)OCCO3)s1,inconclusive: 41%
14,CN(C)C1(CNC(=O)C2CCN(S(=O)(=O)c3cc(Cl)ccc3Cl)CC2)CCCCC1,active: 70.2%
15,O=C1c2ccccc2C2=Nc3ccccc3SC(c3ccc(Cl)cc3)C12 (stereo not given),inconclusive: 78.6%
16,OCc1ccc(-c2nn(Cc3ccccc3)c3ccccc23)o1,active: 117%
17,NC(=O)c1cccnc1,inconclusive: 89.4%
18,Cc1ccc(C2=C(c3ccc([N+](=O)[O-])cc3)C(=O)OC2)cc1C,inconclusive: 50.7%
19,Cc1nc(N2CCN(c3ccccn3)CC2)c2c(C)c(C(=O)Nc3ccc(F)cc3Cl)sc2n1,active: 43.5%
20,CN(C)CCCNc1nc2cc(-c3cnn(C)c3)sc2c(=O)n1C,inconclusive: 44.9%
21,Cc1ccc(Sc2sc(=O)n(C)c2S(=O)(=O)c2ccc(C)cc2)cc1,inconclusive: 61.9%
22,O=C(COc1ccccc1)Nc1cccc(S(=O)(=O)N2CCCC2)c1,inconclusive: 50.4%
23,COP(=O)(OC)C(Nc1ccc([N+](=O)[O-])cc1)c1ccccc1 (stereo not given),inconclusive: 29%
24,Cc1cccc(NC(=O)CCCN2C(=O)C(c3ccccc3)Oc3cccnc32)c1C (stereo not given),active: 57.4%
25,O=C1c2c(-c3ccc(Br)cc3)noc2CCN1Cc1cn(-c2ccccc2)nn1,inconclusive: 80.1%

# — PubChem BioAssay AID686992 (Broad Institute, 2013)
